Assay results published in PubChem BioAssay AID1508624 (National Center for Advancing Translational Sciences (NCATS), 2021).
Out of some 48,000 compounds screened, about 120 (0.25%) were called active. About 4% were inconclusive and are not listed. Calls come from the whole dose curve; as a rule, active = well fitted activation curve with a large enough effect; inconclusive = small, poorly fitted or top-dose-only effect, or another doubt; inactive = no such curve, though single readings can be large or run the other way. This is one part of the list.

test: Primary qHTS for Identification of Small Molecule Activators of Huntingtin-Antisense Promoter Activity; conditions: HEK293 HTT-AS promoter firefly luciferase reporter, 24 h; series mostly up to 57.5 µM; activity change, positive = activation: at the top concentration; note: nearly all actives have a fitted effect of over 55% in size
In short: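 HEK293 cells carrying firefly luciferase reporters were seeded at 2,500 per well in Opti-MEM and cultured for 24 h. They were then treated with compounds at up to 57.5 uM final for 24 h at 37 degrees C before Dual-Glo luminescence readout.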

Activity change, positive = activation, inactive:
CCn1cc(C(=O)N2CCN(c3ccccc3OC)CC2)c(=O)c2cc(S(=O)(=O)N3CCCCC3)ccc21 -10.7%
CC(C)CN(c1ccccc1)S(=O)(=O)c1nnc(NC(=O)c2ccco2)s1 -48.7%
Cc1cccc(C(=O)Nc2ccccc2-c2nc(-c3ccccc3)no2)c1 -1.76%
O=c1c2oc3ccccc3c2n(Cc2ccccc2F)c(=O)n1Cc1ccco1 -13.1%
Cc1ccc(Cn2cc(CCC(=O)NC3CCCCC3)c3ccccc32)cc1 -25.7%
Cc1cc(=O)[nH]c2nnc(SCc3cccc(F)c3)n12 -11.8%
CCOC(=O)NNc1nncc2ccccc12 7.15%
CCCCCSc1nnc2c(n1)OC(c1ccc(C)s1)N(C(C)=O)c1ccccc1-2 (configuration not stated) -42.6%
COc1ccc(S(=O)(=O)NC2(C(F)(F)F)NC(=O)N(CCc3ccccc3)C2=O)cc1 (configuration not stated) -2.09%
COc1ccccc1NC(=O)CN1C(=O)C(c2ccc(F)cc2)=NC1(C)C -17.8%
Cc1cccc(N2CCN(C(=O)Nc3ccc(F)cc3)CC2C)c1 (configuration not stated) -11.2%
Cc1ccccc1NC(=O)Nc1nnc(N(C)Cc2ccccc2)s1 -11.9%
Cc1c(Cl)cccc1N1CC(c2nc3ccccc3n2Cc2ccccc2F)CC1=O (configuration not stated) -16%
Cc1cccc(NC(=O)Cn2c(=O)n(Cc3ccc4c(c3)OCO4)c(=O)c3ccccc32)c1 -27.8%
CCS(=O)(=O)c1c(Nc2ccc(F)c(Cl)c2)sc(C(=O)c2ccccc2)c1N -35.5%
CCOc1ccc(-c2ccc(NS(=O)(=O)c3cc(C)ccc3OC)cc2)nn1 -15.3%
Cc1ccc(N2CCN(C(=O)c3nn(C)c4c3CS(=O)(=O)c3ccccc3-4)CC2C)cc1 (configuration not stated) -18.8%
COc1ccc(-n2cc3c(c2-c2cccc(Br)c2)c(=O)n(C)c(=O)n3C)cc1OC -24.1%
COc1ccc(-c2cc(C(F)(F)F)nc(SCC(=O)NCc3ccc(F)cc3)n2)cc1 -3.93%
COc1cccc(NC(=O)Cn2c(=O)n(Cc3ccccc3)c(=O)c3c4c(sc32)CN(C(C)=O)CC4)c1 -21%
COC(=O)c1ccccc1NC(=O)c1nc(SCc2ccccc2C)ncc1Cl -0.65%
Cc1cc(C)cc(C(=O)Nc2ccc(-c3cn4cccnc4n3)cc2)c1 -22.1%
COc1ccc(N2C(=O)CCSC23C(=O)N(Cc2ccc(F)cc2)c2ccccc23)cc1Cl (configuration not stated) -43.9%
CCC(C)NC(=O)Cn1cnc2sc(C)c(S(=O)(=O)N3CCN(c4ccccc4OC)CC3)c2c1=O (configuration not stated) 15.7%
Cc1c(C(=O)Nc2cccc(Cl)c2)oc2ccc(S(=O)(=O)N3CCOCC3)cc12 -15.2%
COc1cccc(NC(=O)N2CCC(CN3CCOCC3)CC2)c1 -12.1%
CCc1ccccc1NC(=O)Cn1c(=O)ccc2cc(S(=O)(=O)N3CCC(C)CC3)ccc21 -25.9%
Cc1ccc(CCNC(=O)CN2N=C(c3ccc(C)cc3)CCC2=O)cc1 -17.8%
Cc1cccc(N2CCN(S(=O)(=O)c3c(C)nc4scc(C)n4c3=O)CC2C)c1 (configuration not stated) -22%
CCOC(=O)c1sc(NC(=O)c2nc3nc(C)cc(C(F)F)n3n2)c(C(=O)OC)c1C -2.72%
CCOc1cccc(C2c3c(oc4cc(C)c(C)cc4c3=O)C(=O)N2c2nc(C)c(C)s2)c1 (configuration not stated) -6.44%
Cc1ccc(NC(=O)CN2C(=O)C(C)(C)c3cc(S(=O)(=O)N4CCCCC4)ccc32)c(Br)c1 -29.8%
Cn1nc(C(=O)Nc2ccccc2C#N)c2c1-c1ccccc1SC2 -4.79%
Cc1cc(=O)[nH]c(SCC(=O)N2CCN(c3ccccc3)CC2)n1 -11.7%
COc1ccc(-c2nc3ccc(C(=O)NCc4ccc(C)cc4)cc3nc2-c2ccc(OC)cc2)cc1 -8.79%
O=C(CC1N=C2c3ccccc3N=C(SCc3ccccc3Cl)N2C1=O)NC1CCCCC1 (configuration not stated) -34%
CC1CCN(S(=O)(=O)c2ccc3c(c2)N(CC(=O)Nc2ccc(F)c(Cl)c2)C(=O)CO3)CC1 -24.5%
CCC(=O)N1CCc2cc(CNS(=O)(=O)c3cc(Cl)ccc3OC)ccc21 -18.6%
COc1ccc(Br)cc1CNC(=O)CCSCc1ccc(Cl)cc1 -15.6%
Cc1nn(CC(=O)N2CCN(c3ccccc3)CC2)c(=O)c2cc3sccc3n12 -4.51%
Cc1ccc(OCCn2c(COc3ccc(Cl)cc3)nc3ccccc32)cc1 14.6%
CCN1CCN(c2cc(C)c3cc(NC(=O)c4cc(OC)cc(OC)c4)ccc3n2)CC1 28%
CCOc1ccc(NC(=O)c2oc3ccccc3c2NC(=O)C(C)Oc2ccccc2)cc1 (configuration not stated) -16.5%
CCOc1ccc(CNC(=O)c2cccc(Nc3nc4ccccc4n4nnnc34)c2)cc1OC -39.9%
Cc1ccc(C)c(CN2C(=O)c3ccccc3S(=O)(=O)c3ccc(C(=O)N4CCN(Cc5ccccc5)CC4)cc32)c1 0.212%
Cc1cccc(C)c1NC(=O)CSc1nccn1C -6.24%
CC(C)Cn1c(SCc2cccc(F)c2)nc2ccsc2c1=O -28.3%
O=C(CCn1c(=O)c2cccn2c2cccnc21)NCc1cccc(Br)c1 -2.56%
CC(=O)c1cc2c(cc1N/C(=N/S(=O)(=O)c1ccc(C)cc1)c1ccc(Cl)cc1)OCO2 -14.8%
Cc1ccc2c(=O)cc(C(=O)Nc3ccc(S(=O)(=O)N4CCCC(C)C4)cc3)oc2c1C (configuration not stated) 4.61%
COc1ccc(OC)c(C2CC(=O)Nc3ccc4ccccc4c32)c1 (configuration not stated) -17.1%
COc1ccc(-c2cn3c(n2)sc2cc(C(=O)NCc4ccccc4)ccc23)cc1 -4.28%
Cc1ccc(CNc2c(C)c(C)nc3nncn23)cc1 -52.2%
COc1ccc(Cc2nc3ccc(C(=O)NCCc4ccc(Cl)cc4)cc3o2)cc1 -5.48%
CCN(C(=O)CCS(=O)(=O)c1cc(Br)cc2c1N(C(=O)C1CC1)CC2)c1cccc(C)c1 -3.37%
CCOCCCn1c(SCC(=O)Nc2ccccc2OC)nc2c(oc3ccccc32)c1=O -31.3%
Cc1ccc(C)c(C(=O)N2CCC(c3nc4c(nnn4Cc4ccccc4)c(=O)[nH]3)CC2)c1 -13.3%
COc1ccccc1C1=Nn2c(nc3sc(C(=O)Nc4ccccc4Cl)c(C)c3c2=O)SC1 -14.6%
CC(NC(=O)c1c(O)nc2ccccn2c1=O)c1ccccc1 (configuration not stated) -20.2%
S=c1[nH]c2ccccc2s1 -5.45% [at 116 µM, percent change from vehicle, -100% = no light]
CCOc1ccccc1N1CC(c2nc3ccccc3n2CCCCOc2ccccc2)CC1=O (configuration not stated) -9.89%
CCOc1ccc(Nc2oc(/C=C/c3cc(OC)c(OC)c(OC)c3)nc2C#N)cc1 -9.29%
